Measured values reported in PubChem BioAssay AID1508623 (National Center for Advancing Translational Sciences (NCATS), 2021).
The campaign covered roughly 48,000 compounds. About 450 (0.94%) were called active. Inconclusive results (about 19%) are left out. Calls come from the whole dose curve; as a rule, active = well fitted inhibition curve with a large enough effect; inconclusive = small, poorly fitted or top-dose-only effect; inactive = no such curve, though single readings can be large or run the other way. Some of the results follow.

Experiment: Primary qHTS for Identification of Small Molecule Inhibitors of Huntingtin Promoter Activity; note: nearly all actives have a fitted effect of over 50% in size
Conditions: HEK293 HTT promoter firefly luciferase reporter (activity 0% = vehicle and -100% = no light), 24 h; series mostly up to 57.5 µM; activity change, negative = inhibition: at the top concentration
Method in brief: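 Quantitative HTS used concentration series of up to 57.5 uM final on HEK293 luciferase reporter cells, 24 h at 37 degrees C. Readout was Dual-Glo firefly luminescence.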
Potency is the fitted concentration of half-maximal effect.

Row | Structure (SMILES) | activity change, negative = inhibition | Potency
1 | COc1ccc(CCNc2nc3ccccc3c3nc(-c4cccc(C)c4)nn23)cc1OC | inactive: 27% | –
2 | Cc1ccc(CCNC(=O)c2cccc(Nc3nc4ccccc4nc3-n3nc(C)cc3C)c2)cc1 | inactive: -9.35% | –
3 | COc1ccc(S(=O)(=O)NCCc2sc(-c3cccc(C)c3)nc2C)cc1 | inactive: -29.7% | –
4 | Cc1nn(CC(=O)N2CCN(c3cccc(Cl)c3)CC2)c(=O)c2c1sc1ccccc12 | inactive: -9.49% | –
5 | CC(C)CCNC(=O)c1ccc(Cn2c(SCC(N)=O)nc3ccccc3c2=O)cc1 | inactive: -1.98% | –
6 | O=C1COc2cc(S(=O)(=O)CCC(=O)N3CCN(c4ccccc4)CC3)c(Cl)cc2N1 | inactive: -20.9% | –
7 | Cc1ccc(S(=O)(=O)NCCc2nnc3ccc(SCC(=O)Nc4ccc(OC(F)(F)F)cc4)nn23)cc1 | inactive: -21.5% | –
8 | CCCc1ccc(-c2ccc(C(=O)Oc3ccc(Br)cc3)cc2)nc1 | inactive: 1.28% | –
9 | CCOc1ccc(NC(=O)Cn2c(=O)c(CNc3ccccc3)cc3cc4c(cc32)OCCO4)cc1 | inactive: -25.4% | –
10 | COC(=O)c1ccc(CSc2nc3c([nH]c4ccccc43)c(=O)n2-c2cc(C)cc(C)c2)o1 | inactive: -23.5% | –
11 | CN(C(=O)Cn1ncc2c1-c1ccccc1OC2)c1ccc(Br)cc1 | inactive: -25% | –
12 | N=C(N)N1CCc2ccccc2C1 | inactive: -1.08% [at 6.01 µM] | –
13 | CCCCCn1c(CNC(=O)c2ccc(F)cc2)nc2ccccc21 | inactive: -11.6% | –
14 | CN(C)C1(CNC(=O)COc2ccc(C(C)(C)C)cc2)CCCCC1 | inactive: -15.3% | –
15 | CCOC(=O)c1c(C)[nH]c(C)c1S(=O)(=O)N1CCC(C(=O)NCc2ccc(N(C)C)cc2)CC1 | inactive: -7.66% | –
16 | CCCCCn1c(-c2cccc(C)c2)nc2ccccc21 | inactive: -9.45% | –
17 | O=C(Nc1ccc2c(c1)OCO2)c1cc(-c2ccc(Cl)cc2)on1 | inactive: 0.611% | –
18 | COc1ccccc1OCC(=O)Nc1c(C(=O)c2ccc(C)cc2)oc2ccccc12 | inactive: -7.22% | –
19 | COc1ccc(OC)c(CCNC(=O)C(C)n2c(C)c3cnn(-c4ccccc4)c(=O)c3c2C)c1 (stereo not drawn) | inactive: -11.6% | –
20 | COc1ccc(Cl)cc1C(=O)Nc1c2c(nn1-c1ccc(Cl)cc1)CS(=O)(=O)C2 | inactive: -0.939% | –
21 | COc1ccc(Cl)cc1NC(=O)CSc1nc(=O)[nH]c2c1CCCC2 | inactive: -12.3% | –

Row | Structure (SMILES) | activity change, negative = inhibition | Potency
22 | COc1ccccc1NC(=O)c1oc2ccccc2c1NC(=O)COc1ccccc1OC | inactive: 4.74% | –
23 | CCOc1ccc(NC(=O)Cn2cc(C(=O)c3ccccc3)c(=O)c3cc4c(cc32)OCO4)cc1 | inactive: 6.74% | –
24 | Cc1ccc(Cn2c(=O)n(-c3ccc(C)c(C)c3)c(=O)c3c(C)c(C)sc32)cc1 | inactive: -18.3% | –
25 | Cc1ccc2oc(-c3ccc(NC(=O)c4cccc(F)c4)c(C)c3)nc2c1 | inactive: 1.32% | –
26 | CC(=O)N1c2c(cc(Br)cc2S(=O)(=O)NCc2ccccc2Cl)CC1C (stereo not drawn) | inactive: -20.4% | –
27 | COc1ccc(NC(=O)c2cc(C)nc3c2c(C)nn3-c2cccc(Cl)c2C)c(OC)c1 | inactive: -20.1% | –
28 | CN(C)CCOc1ccccc1Cc1ccccc1 | inactive: 1.57% | –
29 | COc1cc(NC(=O)N2CCC(CN3CCc4ccccc4C3)CC2)cc(OC)c1 | inactive: -23.5% | –
30 | CCOc1ccc(OCC)c(NC(=O)c2csc3c2CCCC3)c1 | inactive: 0.927% | –
31 | CCOc1cc(Cl)c(S(=O)(=O)n2cc(C)nc2CC)cc1Cl | – | active: 15.8 µM
32 | CCN(CCCCOC(=O)c1ccc(OC)c(OC)c1)C(C)Cc1ccc(OC)cc1 (stereo not drawn) | inactive: 7.64% | –
33 | O=C(NCC(c1ccco1)S(=O)(=O)c1cccs1)c1ccc(C(F)(F)F)cc1 (stereo not drawn) | inactive: -23.1% | –
34 | COc1cccc(NC(=O)Nc2cc(-c3cn4cccnc4n3)ccc2OC)c1 | inactive: 50.7% | –
35 | CCn1cc2nc(SCc3ccccc3)n(Cc3ccc(C)cc3)c(=O)c2n1 | inactive: -12.3% | –
36 | Cc1cc(C(C)(C)C)cc(C)c1CC1=NCCN1 | inactive | –
37 | Clc1ccc(-c2noc3ncnc(N4CCCCC4)c23)cc1 | inactive: -29.3% | –
38 | COc1ccc(-c2noc(CSc3nnc(C)n3-c3ccc(C)cc3)n2)cc1 | inactive: -24.2% | –
39 | COc1ccc(N2CC(C(=O)Nc3ccccc3-c3nc(-c4ccc(C)cc4)no3)CC2=O)cc1 (stereo not drawn) | inactive: 6.16% | –
40 | CC(C)(CO)[C@@H](O)C(=O)NCCC(=O)O | inactive: -7.62% | –
41 | CCCSc1nc2c(c(=O)[nH]1)C(c1ccc(O)c(OCC)c1)CC(=O)N2 (stereo not drawn) | inactive: -20.8% | –
42 | COc1ccc(C(=O)NCCc2nc3ccccc3[nH]2)cc1 | inactive: -4.26% | –

Row | Structure (SMILES) | activity change, negative = inhibition | Potency
43 | CCOc1ccc(C(CC(=O)Nc2ccc(C(=O)OC)cc2)N2Cc3ccccc3C2=O)cc1OC (stereo not drawn) | inactive: -14.3% | –
44 | CC(C)(C)c1ccc(OCc2cc(=O)n3c4c(sc3n2)CCCC4)cc1 | inactive: -7.42% | –
45 | Cc1ccccc1CSCc1ccc(C(=O)NCCc2ccccc2)o1 | inactive: -13.6% | –
46 | Cc1ccc(CCNC(=O)C2CCCN(S(=O)(=O)c3ccc4c(c3)oc(=O)n4C)C2)cc1 (stereo not drawn) | inactive: -8.28% | –
47 | CCc1ccc(-n2nc(C)c3c(C)cc(=O)n(CC(=O)N(CC)Cc4ccccc4)c32)cc1 | inactive: -2.89% | –
48 | CCc1ccc(C(=O)c2cn(Cc3ccccc3)c3cc(OC)c(OC)cc3c2=O)cc1 | inactive: -25.6% | –
49 | Oc1c(C(c2ccc(Cl)cc2Cl)N2CCCC2)sc2nc(-c3ccco3)nn12 (stereo not drawn) | inactive: 0.346% | –
50 | COc1ccccc1NC(=O)CSc1nc(-c2cccc(Cl)c2)nc2c1Cc1c(CO)cnc(C)c1O2 | inactive: -16.3% | –
51 | CCOc1ccc(CCNC(=O)CCSCc2cccc(Cl)c2)cc1OCC | inactive: -24.7% | –
52 | CCc1ccccc1NC(=O)COC(=O)c1cn(CC)c2nc(C)ccc2c1=O | inactive: -14.3% | –
53 | CCCCOC(=O)c1ccc(Nc2nc3ccc(C)cc3n3cnnc23)cc1 | inactive: -12.1% | –
54 | CN(C)c1ccc(NC(=O)C2(c3cccs3)CCOCC2)cc1 | inactive: -1.21% | –
55 | O=C(Nc1cc(Cl)ccc1O)c1cc2nc(-c3ccc4c(c3)OCO4)cc(C(F)(F)F)n2n1 | inactive: -5.38% | –
56 | CCCOc1ccc(Cn2c(=O)sc3ccccc32)cc1 | inactive: -6.59% | –
57 | Cc1ccc(-c2nc(SCC(=O)Nc3cc(C)on3)c3c(=O)n(C)c(=O)n(C)c3n2)cc1 | inactive: -5.78% | –
58 | COc1ccccc1NC(=O)c1c(NC(=O)c2cccs2)sc2c1CCC(C(C)(C)C)C2 (stereo not drawn) | inactive: -11.4% [at 11.5 µM] | –
59 | CCCCCNc1nc2c(-c3ccccc3)nnn2c2ccccc12 | inactive: -17.1% | –
60 | CCc1ccc(OC(=O)c2sc3ncn(Cc4cccc(F)c4)c(=O)c3c2C)cc1 | inactive: -6.2% | –
61 | O=P(O)(O)C(O)(Cn1ccnc1)P(=O)(O)O | inactive: -1.32% [at 25.2 µM] | –
62 | O=C(NCc1ccc(F)cc1Cl)c1ccc(CSCc2ccccc2Cl)o1 | inactive: -4.86% | –
63 | Cc1ccc(NC(=O)c2cc(-c3cccs3)nc3ccccc23)c(C)c1 | inactive: -11.8% | –
